Assay results from paper PMC4336329 (PLoS ONE, 2015).
About 14,000 (4.5%) of roughly 310,000 compounds showed an effect of 50% or more. The effect is printed as a negative number. The list shows a part of the results.

target: human ether-à-go-go-related gene (hERG) potassium channel (human, UniProt Q12809); assay: primary screen, population patch clamp on CHO cells stably expressing hERG
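Also: peak tail current of the secondary pulse compared with the same well before compound.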

human ether-à-go-go-related gene (hERG) potassium channel, sequence (Q12809 whole entry, looked up): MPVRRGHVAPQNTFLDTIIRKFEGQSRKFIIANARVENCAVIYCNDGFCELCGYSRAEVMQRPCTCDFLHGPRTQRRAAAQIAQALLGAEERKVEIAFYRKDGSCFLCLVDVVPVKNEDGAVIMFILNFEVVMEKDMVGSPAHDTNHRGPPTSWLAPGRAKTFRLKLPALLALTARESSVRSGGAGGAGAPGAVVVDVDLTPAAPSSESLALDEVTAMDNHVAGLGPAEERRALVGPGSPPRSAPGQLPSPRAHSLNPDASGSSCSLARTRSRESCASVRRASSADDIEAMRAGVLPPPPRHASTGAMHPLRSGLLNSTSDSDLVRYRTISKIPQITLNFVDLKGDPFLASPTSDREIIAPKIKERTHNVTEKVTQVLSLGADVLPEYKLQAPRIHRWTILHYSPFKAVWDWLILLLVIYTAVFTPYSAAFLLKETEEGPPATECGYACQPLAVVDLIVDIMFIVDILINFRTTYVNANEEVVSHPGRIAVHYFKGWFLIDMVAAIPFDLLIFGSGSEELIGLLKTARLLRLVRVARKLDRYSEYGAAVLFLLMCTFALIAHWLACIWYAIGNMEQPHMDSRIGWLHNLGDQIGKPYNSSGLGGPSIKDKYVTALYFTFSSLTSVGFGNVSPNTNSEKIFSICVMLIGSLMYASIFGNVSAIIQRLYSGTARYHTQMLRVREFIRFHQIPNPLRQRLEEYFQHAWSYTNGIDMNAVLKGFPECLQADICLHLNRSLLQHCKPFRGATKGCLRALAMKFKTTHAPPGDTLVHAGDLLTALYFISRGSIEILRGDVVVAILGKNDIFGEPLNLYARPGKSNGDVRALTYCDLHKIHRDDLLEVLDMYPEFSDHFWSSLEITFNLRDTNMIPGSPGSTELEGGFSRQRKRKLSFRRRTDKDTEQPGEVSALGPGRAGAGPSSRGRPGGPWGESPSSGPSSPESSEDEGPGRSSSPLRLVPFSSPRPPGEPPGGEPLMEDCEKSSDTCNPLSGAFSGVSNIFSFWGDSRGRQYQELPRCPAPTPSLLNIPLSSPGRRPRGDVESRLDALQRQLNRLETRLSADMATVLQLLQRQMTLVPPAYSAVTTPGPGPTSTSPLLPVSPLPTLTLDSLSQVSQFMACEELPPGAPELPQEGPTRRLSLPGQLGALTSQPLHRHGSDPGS

Structure (SMILES)	hERG current change (%, negative = inhibition) at 10uM [%]
COc1ccc(-c2csc3nc[nH]c(=O)c23)cc1OC	4.52
CCOC(=O)c1ccc(N2C(=O)CC(N3CCCC(C)C3)C2=O)cc1 (stereo not drawn)	3.18
C[C@H](NC(=O)C1CCN(S(=O)(=O)c2ccccc2)CC1)C(=O)NCc1ccc(F)cc1	2.23
Cn1nnnc1N=N/C(=N/Nc1ccccc1)c1ccccc1	6.78
CCOC(=O)Nc1ccc(C(=O)c2ccncc2)cc1	14.7
O=C(O)C1=NN(c2ccccc2)C(=O)C1	4.84
Nc1nc(SCC(=O)Nc2ccc(OCc3ccccc3)cc2)n[nH]1	17.2
CC(CN1CCCCC1)OC(=O)c1ccccc1Cl.Cl (stereo not drawn)	0.889
CCOc1nc(C)cc(C)c1S(=O)(=O)c1cccc(C)c1	-5.24
Cc1ccc(CNC(=O)c2cc(S(=O)(=O)N3CCCCC3)ccc2N2CCOCC2)cc1	-40.5
Cc1ccc(C(=O)CSc2nc3ccccc3c(=O)[nH]2)cc1C	13.1
O=C(O)c1ccc2c(c1)C(=O)N(c1ncccn1)C2=O	-1.29
Cc1cccc(CC2SC(N)=NC2=O)c1.Cl (stereo not drawn)	19.9
COc1ccccc1N1CCN(CCCNC(=O)Nc2ccccc2C)CC1	-33.7
O=S(=O)(c1ccccc1)N1CCc2ccccc2C1	1.32
CC(=O)Nc1ccc(S(=O)(=O)N2CCN(Cc3cccs3)CC2)cc1.O=C(O)C(=O)O	-7.69
O=C(NCc1ccco1)c1cc2ccccc2c(=O)o1	14
C=CCn1c(SCC(=O)Nc2ccccc2)nnc1-c1cccc(S(=O)(=O)N2CCOCC2)c1	-47.5
COC(=O)c1ccc(C)c(NS(=O)(=O)c2ccc(OC)c(OC)c2)c1	-11.9
O=C(c1cnc(N2CCN(c3ccccn3)CC2)c2ccccc12)N1CCN(c2cccc(Cl)c2)CC1	3.86
C/C(=N\OC(=O)c1c(-c2c(F)cccc2Cl)noc1C)c1nccs1	12.9
Cc1ccc(S(=O)(=O)N(C)C)cc1NC(=O)COC(=O)Cc1ccc(Br)cc1	-56.7
O=C(Cn1cc(C(=O)C2CCCCC2)c2ccccc21)NCC1CCCO1 (stereo not drawn)	-14.8
COc1ccc(/C=C(/NC(=O)c2ccco2)C(=O)N2CCc3ccccc32)cc1OC	-2.94
